PubChem BioAssay AID488969 (Vanderbilt High Throughput Screening Facility, 2010)
Whole data set: some 110,000 compounds, median “z-score” near -0.1, cut for the highest 2% near 2. The list shows a part of the results. Activity calls are given as the source filed them.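 The calls were made as follows: active = z-score in the third read window above 3 or below -3; inactive = the rest.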

Each compound was assayed against Metabotropic glutamate receptor 8 (Rattus norvegicus) (UniProt P70579) (assay: rat mGluR8 modulators via GIRK flux, primary screen, cell-based, thallium flux, HTS (AID 488969)). Settings: HEK293 rat mGluR8, GIRK (G protein-gated inwardly rectifying potassium channel) thallium flux, FluoZin2; at 10 µM; stronger effect = higher value; submaximal glutamate (EC20) added with thallium.
UniProt P70579, sequence (P70579 whole entry, looked up): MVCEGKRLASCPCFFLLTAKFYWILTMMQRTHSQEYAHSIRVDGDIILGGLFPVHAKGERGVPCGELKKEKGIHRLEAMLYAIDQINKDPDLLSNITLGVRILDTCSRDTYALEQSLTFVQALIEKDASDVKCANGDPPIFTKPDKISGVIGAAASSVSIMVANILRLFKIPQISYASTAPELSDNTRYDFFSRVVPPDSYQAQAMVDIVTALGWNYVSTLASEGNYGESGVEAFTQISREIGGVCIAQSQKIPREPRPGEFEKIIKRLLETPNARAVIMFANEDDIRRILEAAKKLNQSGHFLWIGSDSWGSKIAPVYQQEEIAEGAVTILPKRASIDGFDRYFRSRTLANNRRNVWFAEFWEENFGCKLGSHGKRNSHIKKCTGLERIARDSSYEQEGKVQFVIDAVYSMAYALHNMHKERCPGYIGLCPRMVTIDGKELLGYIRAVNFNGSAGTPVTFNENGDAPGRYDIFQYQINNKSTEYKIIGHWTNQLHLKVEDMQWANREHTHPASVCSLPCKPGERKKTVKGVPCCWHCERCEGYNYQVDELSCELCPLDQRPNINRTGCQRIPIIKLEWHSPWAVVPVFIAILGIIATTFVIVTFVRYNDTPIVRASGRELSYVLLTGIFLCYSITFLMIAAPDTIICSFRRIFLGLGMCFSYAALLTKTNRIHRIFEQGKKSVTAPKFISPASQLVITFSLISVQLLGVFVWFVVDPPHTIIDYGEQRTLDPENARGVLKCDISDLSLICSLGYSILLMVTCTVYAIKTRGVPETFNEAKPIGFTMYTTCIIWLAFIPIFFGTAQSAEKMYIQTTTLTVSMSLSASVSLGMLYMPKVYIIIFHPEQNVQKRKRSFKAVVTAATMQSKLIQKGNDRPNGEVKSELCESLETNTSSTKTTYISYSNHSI

Row | SMILES | z-score
1 | COc1ccc(-c2nnc(SCC(=O)N3CCCC3)o2)cc1OC | 0.322
2 | Cn1c(=N)n(CC(O)c2ccccc2)c2ccccc21 (stereo unspecified) | 1.57
3 | Clc1ccc(OCCOCCN2CCc3ccccc3C2)c(Cl)c1 | 0.0893
4 | CS(=O)(=O)N(CC(=O)Nc1ccc(Cl)c(Cl)c1)C1CCCCC1 | 0.0485
5 | Cc1ccc(Nc2ncnc3c2oc2ccccc23)cc1 | -0.215
6 | CC(C)(C)NC(=O)C1CCCN(S(=O)(=O)c2cccc3cccnc23)C1 (stereo unspecified) | -0.133
7 | C=CCNC(=S)NNC(=O)C(CCC(C)C)CC(C)O (stereo unspecified) | -0.319
8 | COc1cc(NC(=O)C2COc3ccccc3O2)c(OC)cc1Cl (stereo unspecified) | -1.21
9 | CO/N=C/C(=N\Nc1ccc(OC)cc1)C(=O)c1ccc(OC)cc1 | 0.105
10 | CCn1c(-c2csc(-c3ccccc3)n2)n[nH]c1=S | 0.398
11 | O=C(O)C1CC=CCC1C(=O)NCc1ccccc1 (stereo unspecified) | -0.00232
12 | COc1cc([N+](=O)[O-])cc(/C=N/NC(=O)c2ccc(C)nc2)c1O | -0.205
13 | COc1ccc(-c2nnc(SC(C)C(=O)Nc3cccc(Cl)c3)o2)cc1 (stereo unspecified) | -0.517
14 | COc1ccc(C2C3=C(CC(C)(C)CC3=O)Nc3c2c(=O)[nH]c(=O)n3Cc2ccccc2)cc1OC (stereo unspecified) | -0.0796
15 | Cc1cc(=O)oc2cc(OCC(=O)NCc3ccccn3)ccc12 | -0.044
16 | COc1ccc(N2CCN(C(CNC(=O)C(=O)NCCC3=CCCCC3)c3ccco3)CC2)cc1 (stereo unspecified) | -0.193
17 | O=C(CSc1nc2ccccc2o1)Nc1nc2ccc(Br)cc2s1 | 0.176
18 | CCOc1cccc(=O)c2c(C)n(C)c(C)c12 | -0.449
19 | O=C(O)C1CC(O)CN1S(=O)(=O)c1cccs1 (stereo unspecified) | 0.808
20 | O=C1/C(=C/c2ccccc2)Nc2ccccc21 | -0.773
21 | O=C(NNC(=S)Nc1cccc(C(F)(F)F)c1)c1ccccc1Cl | 0.86
22 | CCOC(=O)CCc1c(C)c(C#N)c2nc3ccccc3n2c1-n1cnc2ccccc21 | -0.146
23 | CCc1c(C)sc(NC(=O)c2cccs2)c1C#N | -0.577

Row | SMILES | z-score
24 | Cc1nn(CC(=O)N2CCOCC2)c(=O)c2ccccc12 | 0.0183
25 | CC1Cc2ccccc2N1C(=O)C1CCCN(S(=O)(=O)c2cccc3cccnc23)C1 (stereo unspecified) | -0.322
26 | Brc1ccc2cccnc2c1 | 0.127
27 | Cc1cc(NC(=O)C(C)Oc2ccc(Cl)cc2Cl)n(-c2ccccc2)n1 (stereo unspecified) | -0.237
28 | CCOC(=O)c1[nH]c(C)c(C(=O)NC2CCN(C(=O)OCC)CC2)c1C | 0.525
29 | O=C(Cn1cnc([N+](=O)[O-])n1)N/N=C/c1cccc2ccccc12 | -0.301
30 | CCN=C1SC(C(=O)Nc2cccc(C(=O)O)c2)CC(=O)N1CC (stereo unspecified) | -0.0757
31 | C/C(=C1\SC(N2CCOCC2)=NC1=O)c1ccc(C)cc1 | -0.38
32 | O=C(Cn1nnc(-c2cccs2)n1)N1CCc2ccccc2C1 | -0.858
33 | COc1ccc(C(=O)Nc2cc(C)c3c(=O)oc4ccccc4c3n2)cc1 | 0.0183
34 | CC(C)OC(=O)CN1C(=O)C(C)(C)Oc2ccc(C(=O)NC3CC3)cc21 | -0.304
35 | COC(=O)C1CSc2[nH]c(=O)sc2C1c1ccc(O)c(OC)c1 (stereo unspecified) | 0.639
36 | COc1ccc(C(=O)COC(=O)C(CCCCN2C(=O)C3C4C=CC(C4)C3C2=O)N2C(=O)C3C4C=CC(C4)C3C2=O)cc1 (stereo unspecified) | -0.489
37 | O=C(CSc1n[nH]c(=O)[nH]c1=O)N/N=C/c1ccccc1O | -0.0324
38 | CCOC(=O)c1ccc(-n2ccnc2)c(NC(=O)c2ccc(Cl)cc2)c1 | -0.385
39 | COc1ccc(NC(=S)N2CCN(CCN=CC3=C(O)CC(c4ccccc4)CC3=O)CC2)cc1 (stereo unspecified) | -0.517
40 | COc1ccccc1N(CC(=O)NC1CCCC1)C(=O)c1csnn1 | -0.397
41 | COc1cccc(/C=N\Nc2nncc(-c3ccccc3)n2)c1 | -0.183
42 | CCOc1ccc(N(CC(=O)NC2CCCCC2)S(=O)(=O)c2c(C)noc2C)cc1 | 0.0255
43 | COc1cc(C(=O)Nc2ccc3c(c2)OCCO3)ccc1OC(C)C | 2.41
44 | Cc1ccc(N=Nc2c(C)[nH]n(C(N)=S)c2=O)cc1C | -0.217
45 | Cc1csc(NC(=O)c2cc3c(s2)CCCCC3)n1 | -0.158
46 | CSc1nsc(SCC(=O)Nc2ccc(C(C)=O)cc2)n1 | -0.119

Row | SMILES | z-score
47 | COc1ccc(C(NC(=O)/C=C\c2ccco2)c2ccc(OC)c(OC)c2)cc1 (stereo unspecified) | -0.081
48 | Cc1ccc(S(=O)(=O)N(C)CC(=O)O/N=C(\N)c2cccc([N+](=O)[O-])c2)cc1 | -0.73
49 | COc1cccc(CNc2ccc(F)c(Cl)c2)c1O | -0.0487
50 | CCCCN(CCCC)S(=O)(=O)c1ccc2[nH]c(=O)[nH]c2c1 | -0.144
51 | CN(C)CCNC(=O)c1ccc(COCC(F)(F)F)cc1 | 0.425
52 | CCOc1ccccc1N1CCN(C(=O)c2cc3c(s2)CCC3)CC1 | -2.68
53 | CCN(C(=O)c1cc2cc3ccc(C)cc3nc2o1)c1ccc(OC)cc1 | -2.68
54 | CCOc1ccc2nc(NC(=O)CS(=O)(=O)c3ccccc3)sc2c1 | 0.564
55 | Cc1ccccc1OCC(=O)N/N=C/c1cccc(Oc2ccc([N+](=O)[O-])cc2[N+](=O)[O-])c1 | -0.266
56 | CC(C)(C)NCc1cc(Br)ccc1OCc1cccs1 | 0.119
57 | O=C(OCc1cnc(Cl)s1)c1ccc(Cl)cc1 | -0.0946
58 | COC(=O)C(CC(=O)c1ccc(Br)cc1)n1ccnc1 (stereo unspecified) | -0.851
59 | CCSC1=C(C#N)C(c2cccc(Br)c2)CC(=O)N1 (stereo unspecified) | -0.439
60 | O=C(NC1CCCCC1)C(c1ccccn1)N(C(=O)Cc1cccs1)c1ccc(Cl)cc1 (stereo unspecified) | -0.584
61 | Cc1noc(C)c1COc1cccc(C(=O)N2CCN(C/C=C/c3ccccc3)CC2)c1 | -0.606
62 | CC(=O)c1c(CC(=O)O)[nH]n(-c2nc3ccccc3s2)c1=O | -0.159
63 | COc1ccc(C2=NN(C(=O)/C=C/c3ccccc3)C(c3ccccc3)C2)c(OC(C)=O)c1 (stereo unspecified) | -0.159
64 | CCCC(=O)NC(Nc1cc(C(F)(F)F)ccc1Cl)C(Cl)(Cl)Cl (stereo unspecified) | -0.349
65 | O=C(NNc1nc(-c2ccc(Cl)cc2)cs1)c1ccco1 | -0.514
66 | CCN1CCN(C(=O)CN(C)S(=O)(=O)c2ccc(Cl)cc2)CC1 | 0.218
67 | Cc1cc[n+](-c2nc3ccccc3nc2C(=C=[N-])C#N)cc1 | -0.186
68 | CCCN1C(=O)/C(=C/c2nc3ccccc3c(=O)[nH]2)c2ccccc21 | -1.54
69 | Cc1csc(=O)n1CCC(=O)O | 0.291

Row | SMILES | z-score
70 | C#CCOC(=O)C(NC(=O)c1ccccc1)=C1CCCCC1 | -0.603
71 | CCCC(=O)Nc1c(-c2ccc(OC)cc2)c(=O)c2ccccc2n1C | -0.253
72 | O=C(N/N=C/c1ccc(O)cc1)c1cccc(C(F)(F)F)c1 | -0.162
73 | O=C(CC(Nc1ccc(F)cc1)C(=O)OCC(=O)c1cccs1)c1ccccc1 (stereo unspecified) | -0.226
74 | COC(=O)C(C)N(C(=O)c1cccc(Cl)c1)c1c(C)cccc1C (stereo unspecified) | active: -4.14
75 | O=C(NCc1ccc2c(c1)OCO2)c1ccc2c(c1)OCCO2 | 0.0302
76 | CCn1cc(CN(C)S(=O)(=O)c2ccc3ccccc3c2)c(C)n1 | -0.504
77 | COc1ccc(S(=O)(=O)N2CCOCC2)cc1NC(=O)Cc1ccc(Cl)c(Cl)c1 | 0.29
78 | O=C(NCCc1ccccn1)c1cc(-c2ccc(Cl)cc2)nc2ccccc12 | -0.309
79 | COc1cc(OC)c(-c2nnc3n(CCc4ccccc4)c(=O)c4ccccc4n23)cc1OC | 0.147
80 | Cc1ccc(Cl)cc1NC(=O)C1CCCN(S(=O)(=O)c2c(C)noc2C)C1 (stereo unspecified) | 0.0669
81 | COc1ccccc1N1CCN(C(=O)C(OC(C)=O)c2ccccc2)CC1 (stereo unspecified) | -0.11
82 | CNC(=O)c1ccc(OCc2ccccc2)c(OC)c1 | 0.749
83 | CCCCCOP(=O)(c1ccccc1)c1ccccc1 | -0.495
84 | COc1ccc2c(CN(C)c3ccccc3)cc(=O)oc2c1 | -1.1
85 | c1n[nH]c(NCc2ccc3c(c2)OCO3)n1 | 0.0632
86 | CC1(C)Cc2c(cnn2-c2ccccc2)C(=O)/C1=N\NC(=O)c1ccccc1O | -0.207
87 | COC(=O)c1ccn(C(=O)c2ccc(Cl)cc2)n1 | 0.271
88 | Cc1ccc(SCc2cc(-c3ccc(Cl)cc3)on2)cc1 | 0.048
89 | Cc1c(-c2ccccc2)cn2c1-c1ccc(C)n1CC2 | -0.0402
90 | O=C(NN1C(=O)/C(=C/c2cccs2)SC1=S)c1ccccc1 | -0.252
91 | CC1(C)CC(=O)C2=C(C1)NC1=C(C(=O)c3ccccc31)C2c1ccccc1 (stereo unspecified) | -0.933
92 | COc1ccccc1NC(=O)c1cccc(NC(=O)c2ccco2)c1 | -0.669

Row | SMILES | z-score
93 | COc1ccccc1N1CCN(C(=O)c2cc(-c3ccc(Br)cc3)on2)CC1 | -0.425
94 | CCOC(=O)CC(=O)CSc1nc2c(cc1C#N)CCCCC2 | 1.09
95 | Cc1ccc(C(=O)N/C(=C\c2cn(-c3ccccc3)nc2-c2ccccc2)C(=O)N2CCOCC2)cc1 | -0.229
96 | O=S(=O)(N/N=C\c1c(F)cccc1Cl)c1ccc(Cl)cc1 | -0.293
97 | COC(=O)Cn1c(=NC(=O)CSCC(=O)NC2CCCCC2)sc2cc(OC)ccc21 | -0.487
98 | COc1cc(C2NC(=O)C(C#N)=C(S)N2c2ccc(C)cc2)ccc1OC(C)C (stereo unspecified) | -0.0791
99 | C=CCn1c2ccccc2c2nnc(SC(CC)C(=O)Nc3nc(C)c(C(=O)OCC)s3)nc21 (stereo unspecified) | -0.486
100 | CCOC(=O)C(C)(C)Sc1nc2c(cnn2-c2ccc(C)cc2)c(=O)[nH]1 | -0.769
101 | CCOC(=O)c1c(NC(=O)CSC(=S)N2CCOCC2)sc(C)c1C | 1.03
102 | C=CCc1c(C)nc(SC)nc1Nc1ccc(C(=O)O)cc1 | -0.18
103 | CCOc1cc(/C=N/NC(=O)CSc2nncn2C)ccc1OC(=O)c1ccc(Cl)cc1 | -0.206
104 | COc1ccc(N/C=C2/CCCCC2=O)cc1 | 0.241
105 | CC(CO)Nc1nc(SCc2ccccc2)nc2sc3c(c12)CCC3 (stereo unspecified) | 0.687
106 | O=C1Cc2cccc3cccc1c23 | -0.0773
107 | CCOc1ccc(-c2nc(C)sc2CC(=O)O)cc1 | 0.231
108 | CN(Cc1cccc(F)c1)C(=O)c1ccc(S(=O)(=O)C(F)F)cc1 | 0.688
109 | Cn1nnnc1SCC(=O)c1c(N)n(C)c(=O)n(C)c1=O | -0.119
110 | O=C(CCSc1ccccc1)NCCN1CCOCC1 | -0.737
111 | O=C(CC1(C(F)(F)F)OCCO1)Nc1ccc2c(c1)OCO2 | 0.815
